From the supplement of paper PMC12217912
Some of the results follow. The full chains were built here from the parent and the listed change. Values near 0.05 are background.

B1: TEV protease; numbered along this chain (parent)
chain: MGESLFKGPRDYNPISSSICHLTNESDGHTTSLYGIGFGPFIITNKHLFRRNNGTLVVQSLHGVFKVKDTTTLQQHLVDGRDMIIIRMPKDFPPFPQKLKFREPQREERICLVTTNFQTKSMSSMVSDTSCTFPSGDGIFWKHWIQTKDGQCGSPLVSTRDGFIVGIHSASNFTNTNNYFTSVPKNFMELLTNQEAQQWVSGWRLNADSVLWGGHKVFMVKPEEPFQPVKEATQL

Variants of: B1
Assay: raw area under fraction-flipped curve 0-4 h after induction (AUC4h, not background-subtracted), DNA-recorder readout of cleavage of the substrate (dimensionless); higher = more cleavage of the substrate by the protease variant
Conditions: temperature: 34 °C; time window: 0-4 h after rhamnose induction
Procedure: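 In vivo DNA recorder in E. coli TOP10(DE3) ΔrhaA at 34 °C. Each TEVp single-site mutant (parent TEVp 0) is paired with a single-site variant of the 7-mer TEVs (canonical ENLYFQ|S). The substrate sits between flexible linkers in a Bxb1-sfGFP-TEVs-SsrA fusion, so cleavage stabilises Bxb1 and speeds flipping of a recombination array, read by NGS. The value is the raw area under the fraction-flipped curve over 0-4 h after rhamnose induction (AUC4h), with ≥20 reads per time point. It is not background-subtracted; inactive controls average about 0.047.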
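Further: Bxb1 expression induced with 0.2% (w/v) L-rhamnose at OD600 near 0.5, cultures sampled hourly, flipped fraction per protease–substrate barcode pair counted by paired-end Illumina sequencing.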

Q: For MGESLFKGPRDYNPISNSICHLTNESDGHTTSLYGIGFGPFIITNKHLFRRNNGTLVVQSLHGVFKVKDTTTLQQHLVDGRDMIIIRMPKDFPPFPQKLKFREPQREERICLVTTNFQTKSMSSMVSDTSCTFPSGDGIFWKHWIQTKDGQCGSPLVSTRDGFIVGIHSASNFTNTNNYFTSVPKNFMELLTNQEAQQWVSGWRLNADSVLWGGHKVFMVKPEEPFQPVKEATQL [S17N], which “area with substrate ENLYFAS” value is on record?
A: 0.0639

Q: What about the “area with substrate ENLYFES” value of the same variant?
A: 0.0561

Q: And the “area with substrate ENLYFFS” value?
A: 0.0733

Q: What about the “area with substrate ENLYFHS” value of the same variant?
A: 0.0405

Q: What about the “area with substrate ENLYFIS” value of the same variant?
A: 0.0567

Q: And the “area with substrate ENLYFKS” value?
A: 0.0594

Q: And the “area with substrate ENLYFMS” value?
A: 0.0618

Q: What about the “area with substrate ENLYFNS” value of the same variant?
A: 0.0594

Q: And the “area with substrate ENLYFPS” value?
A: 0.0532

Q: And the “area with substrate ENLYFRS” value?
A: 0.0598

Q: And the “area with substrate ENLYFSS” value?
A: 0.0519

Q: And the “area with substrate ENLYFTS” value?
A: 0.036

Q: And the “area with substrate ENLYFWS” value?
A: 0.044

Q: Which results are given for MGESLFKGPRDYNPISVSICHLTNESDGHTTSLYGIGFGPFIITNKHLFRRNNGTLVVQSLHGVFKVKDTTTLQQHLVDGRDMIIIRMPKDFPPFPQKLKFREPQREERICLVTTNFQTKSMSSMVSDTSCTFPSGDGIFWKHWIQTKDGQCGSPLVSTRDGFIVGIHSASNFTNTNNYFTSVPKNFMELLTNQEAQQWVSGWRLNADSVLWGGHKVFMVKPEEPFQPVKEATQL [S17V]?
A: area with substrate ENLYFAS: 0.055; area with substrate ENLYFDS: 0.0523; area with substrate ENLYFES: 0.0585; area with substrate ENLYFFS: 0.0704; area with substrate ENLYFGS: 0.0537; area with substrate ENLYFHS: 0.0466; area with substrate ENLYFIS: 0.0553; area with substrate ENLYFKS: 0.071; area with substrate ENLYFLS: 0.0487; area with substrate ENLYFMS: 0.0625; area with substrate ENLYFNS: 0.0632; area with substrate ENLYFPS: 0.0601; area with substrate ENLYFRS: 0.0606; area with substrate ENLYFSS: 0.0554; area with substrate ENLYFTS: 0.0646; area with substrate ENLYFWS: 0.0851; area with substrate ENLYFYS: 0.0601

Q: Which “area with substrate ENLYFAS” value does the source give for MGESLFKGPRDYNPISSSIHHLTNESDGHTTSLYGIGFGPFIITNKHLFRRNNGTLVVQSLHGVFKVKDTTTLQQHLVDGRDMIIIRMPKDFPPFPQKLKFREPQREERICLVTTNFQTKSMSSMVSDTSCTFPSGDGIFWKHWIQTKDGQCGSPLVSTRDGFIVGIHSASNFTNTNNYFTSVPKNFMELLTNQEAQQWVSGWRLNADSVLWGGHKVFMVKPEEPFQPVKEATQL [C20H] here?
A: 0.0437

Q: What about the “area with substrate ENLYFCS” value of the same variant?
A: 0.0395

Q: What about the “area with substrate ENLYFHS” value of the same variant?
A: 0.0458

Q: And the “area with substrate ENLYFIS” value?
A: 0.0379

Q: What about the “area with substrate ENLYFKS” value of the same variant?
A: 0.0473

Q: And the “area with substrate ENLYFLS” value?
A: 0.0467

Q: What about the “area with substrate ENLYFMS” value of the same variant?
A: 0.037

Q: And the “area with substrate ENLYFNS” value?
A: 0.0469

Q: And the “area with substrate ENLYFPS” value?
A: 0.0265

Q: What about the “area with substrate ENLYFRS” value of the same variant?
A: 0.0328

Q: And the “area with substrate ENLYFSS” value?
A: 0.0435

Q: And the “area with substrate ENLYFTS” value?
A: 0.0507

Q: What about the “area with substrate ENLYFVS” value of the same variant?
A: 0.0348

Q: What about the “area with substrate ENLYFWS” value of the same variant?
A: 0.0459

Q: And the “area with substrate ENLYFYS” value?
A: 0.029

Q: With MGESLFKGPRDYNPISSSISHLTNESDGHTTSLYGIGFGPFIITNKHLFRRNNGTLVVQSLHGVFKVKDTTTLQQHLVDGRDMIIIRMPKDFPPFPQKLKFREPQREERICLVTTNFQTKSMSSMVSDTSCTFPSGDGIFWKHWIQTKDGQCGSPLVSTRDGFIVGIHSASNFTNTNNYFTSVPKNFMELLTNQEAQQWVSGWRLNADSVLWGGHKVFMVKPEEPFQPVKEATQL [C20S] as the variant, how does the “area with substrate ENLYFAS” value read?
A: 0.0682

Q: And the “area with substrate ENLYFCS” value?
A: 0.0649

Q: And the “area with substrate ENLYFES” value?
A: 0.0613

Q: And the “area with substrate ENLYFFS” value?
A: 0.062

Q: What about the “area with substrate ENLYFHS” value of the same variant?
A: 0.0577

Q: What about the “area with substrate ENLYFIS” value of the same variant?
A: 0.0552

Q: What about the “area with substrate ENLYFKS” value of the same variant?
A: 0.0499

Q: And the “area with substrate ENLYFMS” value?
A: 0.0479

Q: And the “area with substrate ENLYFNS” value?
A: 0.0532

Q: What about the “area with substrate ENLYFPS” value of the same variant?
A: 0.0327

Q: And the “area with substrate ENLYFRS” value?
A: 0.048

Q: What about the “area with substrate ENLYFSS” value of the same variant?
A: 0.0467

Q: What about the “area with substrate ENLYFTS” value of the same variant?
A: 0.0493

Q: And the “area with substrate ENLYFWS” value?
A: 0.0565

Q: And the “area with substrate ENLYFYS” value?
A: 0.0574

Q: With MGESLFKGPRDYNPISSSIGHLTNESDGHTTSLYGIGFGPFIITNKHLFRRNNGTLVVQSLHGVFKVKDTTTLQQHLVDGRDMIIIRMPKDFPPFPQKLKFREPQREERICLVTTNFQTKSMSSMVSDTSCTFPSGDGIFWKHWIQTKDGQCGSPLVSTRDGFIVGIHSASNFTNTNNYFTSVPKNFMELLTNQEAQQWVSGWRLNADSVLWGGHKVFMVKPEEPFQPVKEATQL [C20G] as the variant, how does the “area with substrate ENLYFAS” value read?
A: 0.0366

Q: What about the “area with substrate ENLYFHS” value of the same variant?
A: 0.0492

Q: And the “area with substrate ENLYFPS” value?
A: 0.0641

Q: What about the “area with substrate ENLYFVS” value of the same variant?
A: 0.0228

Q: Which “area with substrate ENLYFAS” value does the source give for MGESLFKGPRDYNPISSSIDHLTNESDGHTTSLYGIGFGPFIITNKHLFRRNNGTLVVQSLHGVFKVKDTTTLQQHLVDGRDMIIIRMPKDFPPFPQKLKFREPQREERICLVTTNFQTKSMSSMVSDTSCTFPSGDGIFWKHWIQTKDGQCGSPLVSTRDGFIVGIHSASNFTNTNNYFTSVPKNFMELLTNQEAQQWVSGWRLNADSVLWGGHKVFMVKPEEPFQPVKEATQL [C20D] here?
A: 0.0182

Q: And the “area with substrate ENLYFCS” value?
A: 0.0473

Q: And the “area with substrate ENLYFDS” value?
A: 0.0168

Q: And the “area with substrate ENLYFES” value?
A: 0.0364

Q: What about the “area with substrate ENLYFFS” value of the same variant?
A: 0.0531

Q: What about the “area with substrate ENLYFGS” value of the same variant?
A: 0.0395

Q: And the “area with substrate ENLYFHS” value?
A: 0.031

Q: What about the “area with substrate ENLYFIS” value of the same variant?
A: 0.0407

Q: And the “area with substrate ENLYFKS” value?
A: 0.046

Q: And the “area with substrate ENLYFMS” value?
A: 0.0444

Q: And the “area with substrate ENLYFNS” value?
A: 0.0448

Q: And the “area with substrate ENLYFPS” value?
A: 0.0467

Q: And the “area with substrate ENLYFRS” value?
A: 0.0486

Q: What about the “area with substrate ENLYFSS” value of the same variant?
A: 0.034

Q: And the “area with substrate ENLYFTS” value?
A: 0.0322

Q: And the “area with substrate ENLYFVS” value?
A: 0.0399

Q: And the “area with substrate ENLYFWS” value?
A: 0.0306

Q: What about the “area with substrate ENLYFYS” value of the same variant?
A: 0.0425

Q: What does the source list for MGESLFKGPRDYNPISSSLCHLTNESDGHTTSLYGIGFGPFIITNKHLFRRNNGTLVVQSLHGVFKVKDTTTLQQHLVDGRDMIIIRMPKDFPPFPQKLKFREPQREERICLVTTNFQTKSMSSMVSDTSCTFPSGDGIFWKHWIQTKDGQCGSPLVSTRDGFIVGIHSASNFTNTNNYFTSVPKNFMELLTNQEAQQWVSGWRLNADSVLWGGHKVFMVKPEEPFQPVKEATQL [I19L]?
A: area with substrate ENLYFAS: 0.0695; area with substrate ENLYFCS: 0.0358; area with substrate ENLYFDS: 0.0603; area with substrate ENLYFES: 0.072; area with substrate ENLYFFS: 0.072; area with substrate ENLYFGS: 0.0736; area with substrate ENLYFHS: 0.0599; area with substrate ENLYFIS: 0.0605; area with substrate ENLYFKS: 0.067; area with substrate ENLYFMS: 0.0682; area with substrate ENLYFNS: 0.045; area with substrate ENLYFPS: 0.0552; area with substrate ENLYFRS: 0.079; area with substrate ENLYFSS: 0.0614; area with substrate ENLYFTS: 0.0626; area with substrate ENLYFWS: 0.0518

Q: Which “area with substrate ENLYFAS” value does the source give for MGESLFKGPRDYNPISSSECHLTNESDGHTTSLYGIGFGPFIITNKHLFRRNNGTLVVQSLHGVFKVKDTTTLQQHLVDGRDMIIIRMPKDFPPFPQKLKFREPQREERICLVTTNFQTKSMSSMVSDTSCTFPSGDGIFWKHWIQTKDGQCGSPLVSTRDGFIVGIHSASNFTNTNNYFTSVPKNFMELLTNQEAQQWVSGWRLNADSVLWGGHKVFMVKPEEPFQPVKEATQL [I19E] here?
A: 0.0485

Q: What about the “area with substrate ENLYFCS” value of the same variant?
A: 0.0438

Q: What about the “area with substrate ENLYFES” value of the same variant?
A: 0.0415

Q: And the “area with substrate ENLYFFS” value?
A: 0.0525

Q: What about the “area with substrate ENLYFHS” value of the same variant?
A: 0.0421

Q: What about the “area with substrate ENLYFIS” value of the same variant?
A: 0.0469

Q: What about the “area with substrate ENLYFLS” value of the same variant?
A: 0.0564

Q: And the “area with substrate ENLYFMS” value?
A: 0.101

Q: What about the “area with substrate ENLYFPS” value of the same variant?
A: 0.0401

Q: And the “area with substrate ENLYFRS” value?
A: 0.0568

Q: And the “area with substrate ENLYFSS” value?
A: 0.0121

Q: And the “area with substrate ENLYFTS” value?
A: 0.0436

Q: And the “area with substrate ENLYFVS” value?
A: 0.0421

Q: And the “area with substrate ENLYFWS” value?
A: 0.0403

Q: What does the source list for MGESLFKGPRDYNPISSSFCHLTNESDGHTTSLYGIGFGPFIITNKHLFRRNNGTLVVQSLHGVFKVKDTTTLQQHLVDGRDMIIIRMPKDFPPFPQKLKFREPQREERICLVTTNFQTKSMSSMVSDTSCTFPSGDGIFWKHWIQTKDGQCGSPLVSTRDGFIVGIHSASNFTNTNNYFTSVPKNFMELLTNQEAQQWVSGWRLNADSVLWGGHKVFMVKPEEPFQPVKEATQL [I19F]?
A: area with substrate ENLYFAS: 0.051; area with substrate ENLYFCS: 0.0632; area with substrate ENLYFDS: 0.0649; area with substrate ENLYFES: 0.0553; area with substrate ENLYFFS: 0.0706; area with substrate ENLYFHS: 0.065; area with substrate ENLYFIS: 0.0563; area with substrate ENLYFKS: 0.0584; area with substrate ENLYFLS: 0.0561; area with substrate ENLYFMS: 0.0602; area with substrate ENLYFNS: 0.0437; area with substrate ENLYFPS: 0.0687; area with substrate ENLYFRS: 0.0598; area with substrate ENLYFTS: 0.0687; area with substrate ENLYFVS: 0.0547; area with substrate ENLYFWS: 0.0877; area with substrate ENLYFYS: 0.0536
